Test results as given in PubChem BioAssay AID624418 (National Center for Advancing Translational Sciences (NCATS), 2012).
The campaign covered roughly 410,000 compounds. About 530 (0.13%) were called active. This list was built around the results that the source calls inconclusive (neither active nor inactive); the mix of calls is not that of the screen. Calls follow the shape of the dose curve; as a rule, active = well fitted inhibition curve with a large enough effect; inconclusive = small, poorly fitted or top-dose-only effect, or another doubt; inactive = no such curve, though single readings can be large or run the other way. Where the call is inconclusive, the potency comes from a doubtful curve fit.
% is scaled to controls: 0 for no effect and ±100 for the full control effect; potency is read from the fitted curve at half-maximal effect.

Test: qHTS of GLP-1 Receptor Inverse Agonists: Cytotox Screen
Conditions: HEK293 cAMP-luciferase reporter cells, luminescence, 24 h; activity change, negative = inhibition: at 38.3 µM (top of the series) unless noted
Summary of the method: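 Step one: seed cells (200 cells/uL, DMEM with 10% Nu serum, 1% pen-strep). Step two: 12-hour incubation at 37 deg C. Step three: pin 23 nL compound, incubate 24 hr. Step four: add luciferase reagent, read luminescence 12 min later.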
For `CN(C(=O)COc1ccc2ccc(=O)oc2c1)C1CCS(=O)(=O)C1` (stereo not drawn), the Potency was “inactive”. With `O=C(Nc1ccc(NC(=O)c2sc3ccccc3c2Cl)cc1Cl)c1ccco1` the Potency was “inactive”. With `O=C(CCn1c(=O)c2sccc2n(CC(=O)NCc2ccco2)c1=O)NCc1ccccc1` the Potency was “inactive”. With `CSc1ccc(CN(C)C(=O)COc2ccc(C(=O)c3ccccc3)cc2)cc1` the Potency was inconclusive: 10 µM [inhibitor, single point]. For `O=C(NCCc1ccccc1Cl)c1sc2ncccc2c1-n1cccc1`, the Potency was “inactive”. With `Cc1ccc(C(=O)OCC(=O)c2c[nH]c3ccccc23)cc1S(=O)(=O)N1CCOCC1` the Potency was inconclusive: 28.2 µM [inhibitor, single point]. For `CCn1c(NC(=O)/C=C/c2ccc(F)cc2)nc2ccccc21`, the Potency was inconclusive: 22.4 µM [inhibitor, single point]. In the case of `COc1cc(/C=C2\SC(=S)N(CCC(=O)Nc3cccc(O)c3)C2=O)cc(OC)c1OC`, the Potency is reported as inconclusive: 10 µM [inhibitor, single point]. With `CCN(CC)CCCn1c(C)cc2c(c1=O)C(c1ccccc1)C(C#N)=C(N)O2` (stereo not drawn) the Potency was “inactive”. In the case of `CCC1CCCCN1S(=O)(=O)c1ccc(NC(=O)c2cccs2)cc1` (stereo not drawn), the Potency is reported as inconclusive: 28.2 µM [inhibitor, single point]. With `COc1cc([C@@H]2OC[C@@H]3[C@H]2CO[C@@H]3c2ccc3c(c2)OCO3)ccc1O` the Potency was inconclusive: 31.6 µM [inhibitor, single point]. In the case of `Oc1cccc(/C=N/Nc2ccc(Cl)nn2)c1O`, the Potency is reported as inconclusive: 0.708 µM [inhibitor, full curve]. With `COc1ccc2[nH]c3c(c2c1)CCN1C(=O)C(CC(=O)NCCC2=CCCCC2)C[C@H](C(=O)N(C(C)C)C(C)C)[C@@]31C` (stereo partly drawn) the Potency was inconclusive: 28.2 µM [inhibitor, single point]. In the case of `COC(=O)c1[nH]c2ccc(F)cc2c1NS(=O)(=O)c1ccc(F)c(C)c1`, the Potency is reported as “inactive”. For `Cc1ccc(C(CNS(=O)(=O)c2ccc(Br)cc2)N2CCN(C)CC2)cc1` (stereo not drawn), the Potency was “inactive”. With `CCOC(=O)c1ccc(N2C(=O)c3n[nH]c(-c4ccco4)c3C2c2ccc(C)cc2)cc1` (stereo not drawn) the Potency was inconclusive: 28.2 µM [inhibitor, single point]. For `O=C(NNC(=O)c1cc2cc3ccccc3nc2s1)c1cccc(Cl)c1`, the Potency was inconclusive: 14.1 µM [inhibitor, single point]. In the case of `Cc1cccc(NC(=O)CSc2ccc(-c3ccccn3)nn2)c1`, the Potency is reported as inconclusive: 11.2 µM [inhibitor, partial curve]. For `CC(=O)Nc1ccc(NS(=O)(=O)c2c(C(=O)N3CCC(C)CC3)c(C)n(C)c2C)cc1`, the Potency was “inactive”. With `CC(=O)Nc1ccc(-c2ccnc3c2CC(C(=O)NCc2ccccc2)O3)cc1` (stereo not drawn) the Potency was inconclusive: 0.501 µM [inhibitor, full curve, poor fit]. In the case of `COc1ccc(NC(=O)CCCSc2nc(-c3ccco3)cc(C(F)(F)F)n2)cc1OC`, the Potency is reported as “inactive”. For `Cc1cccc(-n2cc(-c3ccccc3)c3c(N4CCOCC4)ncnc32)c1`, the Potency was inconclusive: 28.2 µM [inhibitor, single point]. In the case of `COc1ccccc1/C=C/C=N/NC(=O)c1cccs1`, the Potency is reported as “inactive”. With `COc1ccc(O)c(/C=c2/sc3nc4cc(C)c(C)cc4n3c2=O)c1` the Potency was inconclusive: 14.1 µM [inhibitor, single point]. In the case of `Cc1ccc(CN2CCCN(CC(=O)Nc3ccc(C)cc3C)S2(=O)=O)cc1`, the Potency is reported as “inactive”. In the case of `CN1CCN(C(=O)C23CC4CC(C)(CC(C)(C4)C2)C3)CC1`, the Potency is reported as “inactive”. In the case of `CCN1/C(=C/C(C)=C/c2sc3ccccc3[n+]2CC)Sc2ccccc21`, the Potency is reported as active: 12.6 µM. In the case of `CCCOc1ccc(CNC(=S)NCc2ccc(OC(C)C)cc2)cc1`, the Potency is reported as inconclusive: 11.2 µM [inhibitor, single point]. In the case of `O=c1[nH]c(=O)n(-c2ccc(F)cc2)c2c1C(C(F)(F)F)(C(F)(F)F)N=C(c1ccc(F)cc1)N2`, the Potency is reported as inconclusive: 12.6 µM [inhibitor, single point]. With `c1ccc2cc(CSCc3nc4ccccc4[nH]3)ccc2c1` the Potency was inconclusive: 12.6 µM [inhibitor, single point]. In the case of `Cc1ccc(Nc2c(-c3ccccc3O)nc3cnccn23)cc1`, the Potency is reported as inconclusive: 3.16 µM [inhibitor, partial curve, poor fit]. With `C=CCn1c(C)cc(-c2csc(NCC)n2)c1C` the Potency was inconclusive: 15.8 µM [inhibitor, single point]. For `N#Cc1ccc(/C=N/NC(=O)c2cc(-c3cccs3)nc3ccccc23)cc1`, the Potency was inconclusive: 5.01 µM [inhibitor, full curve, poor fit]. For `Cc1cc(C2=NNC(=NC3CC3)SC2)c(C)n1-c1ccccc1`, the Potency was inconclusive: 11.2 µM [inhibitor, partial curve, poor fit]. For `O=[N+]([O-])c1ccc(N2CCCC2)cc1N1CCCC1`, the Potency was inconclusive: 20 µM [inhibitor, single point]. In the case of `CS(=O)(=O)c1ccc(Cl)c(NC(=O)CCCSc2ccccc2)c1`, the Potency is reported as inconclusive: 14.1 µM [inhibitor, single point]. With `CC(CCc1ccc(O)cc1)NCc1ccc(Cl)cc1Cl` (stereo not drawn) the Potency was inconclusive: 10 µM [inhibitor, partial curve, poor fit]. With `CC(=O)N1N=C(c2ccc(C(C)(C)C)cc2)OC1(C)C` the Potency was “inactive”. In the case of `COc1ccc(O)c(CNn2c(-c3ccc(Br)cc3)nc3ccccc3c2=O)c1`, the Potency is reported as inconclusive: 12.6 µM [inhibitor, single point]. For `COc1ccc(NC(=S)NCc2ccc3c(c2)OCO3)cc1`, the Potency was “inactive”. With `Cc1ccccc1NC(=S)NCc1ccc(Cl)cc1` the Potency was inconclusive: 28.2 µM [inhibitor, single point]. In the case of `O=C(CCN1C(=O)/C(=C/c2ccccc2F)SC1=S)NCCCN1CCOCC1`, the Potency is reported as inconclusive: 28.2 µM [inhibitor, single point]. With `COc1ccc(-c2nn(-c3ccccc3)cc2/C=N/NC(N)=S)cc1OC` the Potency was inconclusive: 7.08 µM [inhibitor, partial curve, poor fit]. In the case of `Fc1cccc(/C=N/Nc2ccccn2)c1`, the Potency is reported as inconclusive: 12.6 µM [inhibitor, single point]. With `Cc1nnc(SCCN2CCOCC2)n1C` the Potency was inconclusive: 28.2 µM [inhibitor, single point]. For `O=c1c2ccccc2nc(SCc2nnc(-c3ccccc3Br)o2)n1Cc1ccco1`, the Potency was inconclusive: 1 µM [inhibitor, full curve, poor fit]. With `Fc1ccccc1C1c2cccn2CCN1C(=S)Nc1ccc(Br)cc1` (stereo not drawn) the Potency was inconclusive: 14.1 µM [inhibitor, single point]. For `CC(OC(=O)CC1CCCC1)C(=O)Nc1ccc(Cl)cn1` (stereo not drawn), the Potency was “inactive”. With `O=C(Nc1cccc(Cl)c1)N1CCC(CO)(CCOc2ccccc2)CC1` the Potency was “inactive”. In the case of `CCCCC(C(=O)OCC(=O)c1ccc(OC)cc1)N1C(=O)c2ccccc2C1=O` (stereo not drawn), the Potency is reported as inconclusive: 2 µM [inhibitor, partial curve, poor fit]. For `CS(=O)(=O)c1ccc(C(=O)OCc2nnc(-c3ccccc3)o2)cc1[N+](=O)[O-]`, the Potency was inconclusive: 7.94 µM [inhibitor, partial curve]. For `Cc1ccc(C)c(C(C)NC(=S)NCc2ccc(F)cc2)c1` (stereo not drawn), the Potency was inconclusive: 12.6 µM [inhibitor, single point]. For `CCCCN1CNC(=S)N(CCc2ccccc2)C1`, the Potency was inconclusive: 28.2 µM [inhibitor, single point]. In the case of `CNc1cc(C(F)(F)F)nc(-c2ccccn2)n1`, the Potency is reported as inconclusive: 22.4 µM [inhibitor, single point]. In the case of `CCOC(=O)[C@H]1[C@H]2COc3ccc(C)cc3[C@@H]2N2C(=O)CN(Cc3ccc(OC)cc3)C(=O)[C@@]12C`, the Potency is reported as inconclusive: 3.16 µM [inhibitor, full curve]. For `COc1cc(-c2cc(-c3ccccc3)nc(SCC(=O)Nc3nccs3)c2C#N)cc(OC)c1OC`, the Potency was “inactive”. For `Cc1cc(NC(=O)c2sccc2C)n(-c2nc3ccccc3[nH]2)n1`, the Potency was inconclusive: 14.1 µM [inhibitor, single point]. In the case of `COc1cc(OC)cc(-c2c(C#Cc3ccsc3)c3cc(-c4ccc(OC)nc4)ccc3n2C)c1`, the Potency is reported as inconclusive: 8.91 µM [inhibitor, single point]. In the case of `CCOC(=O)C1=C(CN2CCSCC2)NC(=O)NC1c1ccc2c(c1)OCO2` (stereo not drawn), the Potency is reported as inconclusive: 2 µM [inhibitor, partial curve, poor fit]. With `CCOC(=O)c1c(NC(=O)c2ccco2)n(C2CCCCC2)c2nc3ccccc3nc12` the Potency was “inactive”. In the case of `CSc1ncnc2c1cnn2-c1ccc(C)cc1C`, the activity change, negative = inhibition is reported as inactive: -0.9% [at 7.66 µM]. With `O=S(=O)(NCCc1nnc2ccc(SCc3c(F)cccc3Cl)nn12)c1ccccc1` the Potency was “inactive”. For `Cc1cccc(C)c1NC(=S)Nc1ccc(F)cc1`, the activity change, negative = inhibition was inactive: -5.27% [at 7.66 µM]. In the case of `COCCNC(=O)NC(=O)COC(=O)c1ccc2[nH]c3c(c2c1)CCCC3`, the Potency is reported as inconclusive: 28.2 µM [inhibitor, single point]. With `Cc1ccc(NS(=O)(=O)c2ccc3[nH]c4c(c3c2)CCCCC4)cc1` the Potency was inconclusive: 12.6 µM [inhibitor, single point]. With `COc1ccc(CCN2C(=S)N(c3ccc(Cl)cc3)C(=O)C2CC(N)=O)cc1OC` (stereo not drawn) the Potency was inconclusive: 28.2 µM [inhibitor, single point]. For `CCCCN1CN(Cc2ccccc2)CNC1=S`, the Potency was inconclusive: 12.6 µM [inhibitor, single point]. With `CCC(=O)Nc1cccc(C(=O)/C=C/c2cc(Br)ccc2OC)c1` the Potency was inconclusive: 14.1 µM [inhibitor, single point].
